Laboratory results from ChEMBL document CHEMBL4888484, “Replenishing the malaria drug discovery pipeline: Screening and hit evaluation of the MMV Hit Generation Library 1 (HGL1) against asexual blood stage Plasmodium falciparum ,using a nano luciferase reporter read-out” (2022).
Hit rate of the full screen: of about 150,000 compounds, about 540 (0.36%) showed an effect of 50% or more. The list shows a part of the results.

System: Plasmodium falciparum
Assay: Primary screen in NF54 nanoGlo assay, in single point, at 2uM, 72h; a lower Z score goes with more inhibition
Type: functional, Erythrocyte
Details: timepoint 72 hour

| Structure (SMILES) | % Inhibition [%] | Z score |
| --- | --- | --- |
| C[C@H](NCCn1cncn1)c1cccc(C2CC2)c1 | -8 | 1.3 |
| COc1cn(CC(=O)NCCn2ccc3cc(Br)ccc32)c(C)cc1=O | -1 | 0.18 |
| Cc1cnn(C2CCCC2)c1NC(=O)NC[C@@H](CO)Cc1ccco1 | -9 | 1.78 |
| CC1CCN(C(=O)[C@@H]2CCCN2C(=O)c2ccccc2)CC1 | -1 | 0.19 |
| O=C(Nc1ccccc1C(F)(F)F)N1CC(N2C(=O)C3CC=CCC3C2=O)C1 (stereo unspecified) | -17 | 1.98 |
| CC(C)CCC(=O)Nc1cc(Br)c[nH]c1=O | -16 | 1.52 |
| C[C@@H](CC(=O)N(C)c1ccccc1)NCc1cccnc1 | -5 | 0.46 |
| CCN(C[C@H]1CCOC1)C(=O)Nc1cccnc1-n1cccn1 | -1 | 0.21 |
| O=C(c1cc(=O)c(OCc2ccc(F)cc2)c[nH]1)N1CCN(c2ccccc2F)CC1 | 5 | -0.75 |
| COCc1c(C(=O)NCCc2ccccc2F)cnn1-c1nccc(-c2cccs2)n1 | -2 | 0.25 |
| CCS(=O)(=O)C1CN(C(=O)c2ccc3ncsc3c2)C1 | -4 | 0.83 |
| Cc1cnc(CN2C[C@]3(CCCN(C(=O)c4cccnc4C)C3)CCC2=O)cn1 | -10 | 1.32 |
| Cc1noc([C@@H]2CCCN2CCC(=O)N2CCN(C)CC2)n1 | -13 | 2.18 |
| CN(CCc1noc(C2CC2)n1)C(=O)[C@H]1CCOC1 | 0 | -0.05 |
| CC(C)CCNC(=O)C1Cc2ccccc2N2CCN(Cc3ccccc3)CC12 (stereo unspecified) | -12 | 1.11 |
| O=C1C[C@]2(C(=O)N(Cc3ccccc3Cl)c3ccccc32)c2cn[nH]c2N1 | 3 | -0.34 |
| Cc1cc2ncc(NC(=O)[C@@H]3COc4ccccc4O3)cn2n1 | -4 | 0.49 |
| COC(=O)C1CCCC1NC(=O)CC1CCC(C(F)(F)F)CC1 (stereo unspecified) | -7 | 0.98 |
| CN(Cc1coc(-c2ccc(S(C)(=O)=O)cc2)n1)C1CCCCC1S(C)(=O)=O (stereo unspecified) | 9 | -0.97 |
| O=C(Cc1csc(-c2cccnc2)n1)N1CC(S(=O)(=O)N2CCOCC2)C1 | -7 | 0.85 |
| COc1ccc(CNC[C@H]2CCCO2)cc1OCc1ccco1 | 4 | -0.59 |
| Cc1ccc(CC[C@H]2Nc3ccccc3C(c3ccccc3)(c3ccccc3)O2)o1 | 81 | -13.4 |
| Cc1cccc(CN[C@H]2CC(=O)N(CCN3CCOCC3)C2)c1C | -5 | 0.62 |
